± gives the standard deviation of the averaged measurements. The list shows a part of the results.

The subject of this test is PfAP2-I AP2 domain 3 (GST-tagged). Put plainly: gcPBM binding intensity (ln(normalized median fluorescence intensity)); higher = stronger DNA binding. The method in brief:
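GST-tagged P. falciparum DNA-binding domains produced in E. coli were incubated for 1 h on an Agilent 4 × 180k array of primer-extended double-stranded 36-bp intergenic genomic probes with negative controls. Binding intensity is the highest Masliner-normalised natural-log median intensity across replicate spots of either probe orientation, with bound protein detected by Alexa488 anti-GST antibody at 488 nm.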
With “TATTTTTAAACAAAACTGTATTTATTTTTTAAAATT [CACACA_negctrl_site1449]”, the “gcPBM binding intensity (ln)” value was 7.38 ± 0.54.
Under TTTTGTTATTTTTGTATGCACTACATATTATTATAT stands 10.2 ± 0.035; under “TAGTTTTTTATATATTGTACAAATGATATATTATAT [XGTACX_site1002]”, 7.86 ± 0.54; under “AAACTTTTTTTAAAAACACACATATAGATTTATATA [CACACA_site7842]”, 7.83 ± 0.55.
The value for “GAAATTAAAAAATTTATGCACACTTTAAAAAAAAAA [CACACA_site3769]” was 10.1 ± 0.25; that for “ATATATATATATAATTGTACATTTTTATGTTTTATA [XGTACX_site4560]” was 9.36 ± 0.39.
The value for “ATATGTAGTTTTTATTGTACGTGTAGAAGAAATAAT [XGTACX_site6608]” was 8.32 ± 0.33; that for “TTCATTAAAATTATTACACACAGTTCTTCAACCAAA [CACACA_site3504]” was 7.62 ± 0.57; that for “TTTTAAACAGGACACACACACATATAGATTTATATA [CACACA_site6560]” was 7.88 ± 0.46.
In the case of “AATGATTTTCAATCGAAATGAAACTTAGAAGATATA [CACACA_negctrl_site1475]”, the “gcPBM binding intensity (ln)” value came out at 7.42 ± 0.61.
The value for “ACAAAATAATTGTTTACACACCCATTTGTAATTTTA [CACACA_site3615]” was 7.79 ± 0.69.
The value for “TCTGTAAACATATTCACACACATAAATTCGCATATA [CACACA_site1866]” was 7.68 ± 0.59.
Under “TGTATGAAAATAAATGCATGCCAAATATATATATAT [TGCATGCA_site132]” stands 9.14 ± 0.2; under “AAAATGAAATATGTTATATATATATATATATATATA [CACACA_negctrl_site1752]”, 9.41 ± 0.57; under “TATCATTGTTCATGCTTGCACTTTTGTTACTGTTCC [GTGCAC_site9425]”, 8.18 ± 0.93.
Turning to “GAAAATTTATATTGCACACATAGGGAATAAAAAAAA [CACACA_site2146]”, the “gcPBM binding intensity (ln)” value amounted to 10.7 ± 0.4.
The value for “TAATTTCCTTAAGAATGTACTTACATTTTATTATTT [XGTACX_site5998]” was 7.54 ± 0.45.
Under “TAATATGAAATGTGTACACACGCACCCACAAAAAAA [CACACA_site8949]” stands 9.11 ± 0.31.
The value for “GTTTATGTATTATTATGTACGTATCATAATATATAT [XGTACX_site2385]” was 8.28 ± 0.38; that for “ATGGACAAGTTAAACGCACACAAATATATACAGACA [CACACA_site1652]” was 8.87 ± 0.47; that for “AAAAAATATAAAAAAAGTACACAAAAACTACAAAAA [XGTACX_site2677]” was 8.01 ± 0.57.
As to “AAAAAGAGGAAAAAGATAAAGAAATTAAAGGAGAGA [CACACA_negctrl_site423]”, the “gcPBM binding intensity (ln)” value is 7.55 ± 0.71.
Consider “TTTAATCATTTTATTTGTACTCATAAAAAATATAAT [XGTACX_site5537]”, for which the “gcPBM binding intensity (ln)” value amounted to 7.82 ± 0.099.
Under “ATAACTTTATTTTCCTGTACACACATTTGACATATT [XGTACX_site7192]” stands 8.54 ± 0.54; under “ATATATAATATAAGATGTACAATAAAATCTATATAT [XGTACX_site546]”, 7.88 ± 0.43; under “CATAAAATTGTGAAGTGTACATATTTTTAAATATAA [XGTACX_site8986]”, 8 ± 0.31.
With “AGAAATATCTAATTGTGTACTCAAGAAAAAGTTACG [XGTACX_site372]”, the “gcPBM binding intensity (ln)” value turned out to be 7.99 ± 0.28.
Take “GGTAGTTATTATCTCCGTACTTATAAAGAAAAAAGG [XGTACX_site4674]”: the “gcPBM binding intensity (ln)” value came out at 7.92 ± 0.7.
As for “ATATTTTATATGTTCACACATACATAAACATATTTT [CACACA_site4948]”, the “gcPBM binding intensity (ln)” value came to 7.82 ± 0.6.
The value for “GAATAAAAATTTTAATGTACATATTTTTTATTTATA [XGTACX_site8935]” was 7.61 ± 0.36; that for “TACAAATATATAAAATGTACATATATATACATATTA [XGTACX_site3029]” was 7.46 ± 0.27.
The value for “TTTATTTTCATATGAACACACATATAAATATTATAA [CACACA_site7172]” was 7.87 ± 0.41.
“TTTTTATTATTTAAATGTACATATAAATATATATAT [XGTACX_site6870]”: the “gcPBM binding intensity (ln)” value was found to be 8.76 ± 0.43.
In the case of “CTTACAGACATATATACACACATGTATATTTTATAT [CACACA_site549]”, the “gcPBM binding intensity (ln)” value amounted to 7.79 ± 0.49.
Under “AAGAAGAAACGGAAAAGTACAAAGAAGAAATAAGTA [XGTACX_site3680]” stands 8.07 ± 0.64; under “GAGGATGCCTATGGCACACATTATAAAACTGTCGCT [CACACA_site4322]”, 8.15 ± 0.56; under “ATGTTTTTAATTTATTGTACATTAATTTGTATTATT [XGTACX_site253]”, 7.92 ± 0.6.
Under “TTTTCTTTTCTCTTCTTTTTCTCCCATTATTAATCT [XGTACX_negctrl_site406]” stands 7.5 ± 0.55; under “ATTTCATTTATAAGGATATCTACTTTTTATTTTAAT [GTGCAC_negctrl_site59]”, 7.56 ± 0.69; under “AAACGAAAAAAATGGTGTACATTAAAATGAAAATTG [XGTACX_site7040]”, 7.91 ± 0.59.
The value for “TCTATCTTTTCCAAACGTACATTTTTTATATAAATT [XGTACX_site5352]” was 7.93 ± 0.6.
Take “TATTTTCCCTCCATATGTACTTAATTATAAGCACAT [XGTACX_site4000]”: the “gcPBM binding intensity (ln)” value turned out to be 8.71 ± 0.18.
The value for ATATATATCTTTTGTGTGCACATATATATAATATAT was 9.79 ± 0.22; that for “AAAAAAAAAATATACACACACACATACACATAAATA [CACACA_site3808]” was 7.94 ± 0.37; that for “TTATATTCTATTTATTGTACTTAAATATATATATAT [XGTACX_site6400]” was 8.98 ± 0.23.
For “TATATATCGCATAAAACACACAAAAAAAAAATTAAA [CACACA_site7767]”, the “gcPBM binding intensity (ln)” value was 7.72 ± 0.33.
Under “ATAAAATACATATAAACACACATATAAACCGACATA [CACACA_site2477]” stands 7.99 ± 0.42; under “TAAACATAAATATGCACACATATACAGATATTCATA [CACACA_site5471]”, 8.645 ± 0.049.
Under “TTTTACTTAAGACACACACACACAAAAAAAAAAAAA [CACACA_site6573]” stands 8.23 ± 0.31; under “AGTTTTTACTCTAATGGTACAGTGCAACTAATAAAT [XGTACX_site6950]”, 9.23 ± 0.085; under “TTTATGTAAAAATATAGTACATATTAAAAGATAAGA [XGTACX_site8134]”, 8.03 ± 0.44.
For “ATATATTCCATAAAGGTGCTGTTAACGTGTCAACGT [GTGCAC_site9402]”, the “gcPBM binding intensity (ln)” value came out at 8.81 ± 0.57.
The value for “TAAGTATACACATACACACACACACTAAAAAAAAAA [CACACA_site6337]” was 8.12 ± 0.32; that for “ACTTTATTTTCCTGTACACACATTTGACATATTAAA [CACACA_site3378]” was 8.8 ± 0.57.
The value for “AAAAACAAAAAAAAAACACACAATTCTAGTTATTTT [CACACA_site2767]” was 7.26 ± 0.69; that for “CACCAAACTAAATGTACACACATACATAAATATAAA [CACACA_site4765]” was 7.99 ± 0.2.
Under “TTTTTTTTCCTAATGTGTACTAAAAATGAACAATAA [XGTACX_site5248]” stands 8.16 ± 0.23; under “AAAAAAAAGAAACACACACACATACACATAAATATA [CACACA_site3807]”, 7.83 ± 0.5.
For “ATATTTTTTTCATAGACACACACAATATATCTGTTT [CACACA_site8993]”, the “gcPBM binding intensity (ln)” value was 7.96 ± 0.52.
The value for “TTTTTTATTTTATTTTATTTTTATTTTTTTTTTTTT [GTGCAC_negctrl_site596]” was 7.53 ± 0.16.
With “AACATTATTTTGTGTACACATTCGGTTATATTATAT [CACACA_site5628]”, the “gcPBM binding intensity (ln)” value was 8.41 ± 0.59.
Under “ATAACATATTTCTTTTGTACTCAAAATAAAATTAAT [XGTACX_site2479]” stands 7.79 ± 0.29; under “AAATATATTTTATTTTGTACTTATGTATAAAATATA [XGTACX_site914]”, 7.53 ± 0.3; under “AATTTTGTTGAGCACACACACATACATACATACATA [CACACA_site3154]”, 8.61 ± 0.38.
The value for ATTAAATTTCCTTGAGTGCACATTTTGTTAAAATAT was 10.05 ± 0.099; that for “ACGTGATAAATAAATACATGCATAGAAAGATGCATA [TGCATGCA_site91]” was 7.68 ± 0.49; that for “TATATATATATATATTGTACTAGTGCATATATATAC [XGTACX_site7926]” was 10.7 ± 0.73.
On to “TACAATGAAAAAATAACATGCAATTATATTTCTCTT [TGCATGCA_site833]”, for which the “gcPBM binding intensity (ln)” value is 8.23 ± 0.74.
Under “TTTAAATATTTTAATACACACACGATATGTACAAAA [CACACA_site4455]” stands 8.01 ± 0.35; under “ATTTTATTTTCTCACACACACATATATATATATATA [CACACA_site5781]”, 9.4 ± 0.54; under “ACATATGTTAAAAAGGCATGCATTCTTTTTATTTTA [TGCATGCA_site1043]”, 7.66 ± 0.83.
Turning to “TTTTTTTTGGTATAATGTACATTTTCACTTATGTAT [XGTACX_site3259]”, the “gcPBM binding intensity (ln)” value was 8.12 ± 0.67.
Under “ACCAAAAAAAAAAAAAAAAAAATATACATATATATA [GTGCAC_negctrl_site582]” stands 8.12 ± 1.
The value for “GTGCCATTTAAAAAATGTACAAGAAAATGTTCATCA [XGTACX_site2865]” was 7.96 ± 0.39.
Under “TGGTATTGAATTTTTTGTACACATAAAATATATATA [XGTACX_site7614]” stands 7.98 ± 0.54; under “TATTTTAATTTTTTTTTGTTTTTTCTAATACATGTA [CACACA_negctrl_site1399]”, 7.33 ± 0.72.
Take “TCCTTTATTTTTAAAGTGCATATACATGTACATTAT [GTGCAC_site9445]”: the “gcPBM binding intensity (ln)” value stood at 9.675 ± 0.078.
The value for “GAAGAAAAAAAATATACACACATACGATCATACATA [CACACA_site5227]” was 7.49 ± 0.52.
The value for “CAGCTCTTAAGAATTACACACATATACACATATATA [CACACA_site7524]” was 7.72 ± 0.53; that for “ATACATAAATACAAACGTACATACATACATACATAC [XGTACX_site7824]” was 8.98 ± 0.35.
The value for “GCAACACAAAAAATTACACACAAAAAAAATATATTA [CACACA_site916]” was 7.75 ± 0.21; that for “AAAAAAAAAAAAAAATGTACATATGGTATGCATATA [XGTACX_site3225]” was 7.99 ± 0.37.
In the case of “GCTTATAAAGGCAGAAGTACTGTATTCCTATATATA [XGTACX_site8865]”, the “gcPBM binding intensity (ln)” value turned out to be 7.61 ± 0.4.
Consider “AATAATAAAAAATATACACACATATATATATATATA [CACACA_site25]”, for which the “gcPBM binding intensity (ln)” value stood at 9.1 ± 0.72.
Take “TTGGCATACGGACACACACACACACCCAGACATATA [CACACA_site4492]”: the “gcPBM binding intensity (ln)” value was determined as 7.91 ± 0.46.
Under “TATACCTATAAATACACACACATATAAATAAATATA [CACACA_site6153]” stands 7.83 ± 0.43.
Under “TTATACAAATTCATGGGTACAAACAAACATATATCA [XGTACX_site6237]” stands 7.93 ± 0.56; under “AAAATATATACTCCATCACACACCAAAAAGAAAAAA [CACACA_site2542]”, 7.71 ± 0.52.
The value for “ATTCAAAAGATGTATACACACATGTGTATAATATAA [CACACA_site7197]” was 7.88 ± 0.59.

The values are drawn from the supplement of paper PMC11417369.
